Sequences and labels used below:
T1: RBFOX1 RRM RbFoxmut (Fox-RRM*) (Homo sapiens, UniProt Q9NWB1 109-208, R118D;E147R;N151S;E152T)
T1 sequence: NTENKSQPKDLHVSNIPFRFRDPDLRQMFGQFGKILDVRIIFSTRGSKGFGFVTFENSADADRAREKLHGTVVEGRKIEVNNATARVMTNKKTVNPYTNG

B1: UAGUGCU (DNA:RNA)
RNA: GGGAGACCGGAAUUCAGAUUGUCCUAGUGCUUUAAAUCCCGUCGUAGCCACCA
DNA 1: CAATCTGAATTCCGGTCTCCC
DNA 2: TGGTGGCTACGACGGGATT
B2: CUACCGG (DNA:RNA)
RNA: GGGAGACCGGAAUUCAGAUUGUCCCUACCGGUUAAAUCCCGUCGUAGCCACCA
DNA 1: CAATCTGAATTCCGGTCTCCC
DNA 2: TGGTGGCTACGACGGGATT
B3: AGAGACA (DNA:RNA)
RNA: B2 RNA with C25A, U26G, C28G, C29A, G30C, G31A
DNA 1: CAATCTGAATTCCGGTCTCCC
DNA 2: TGGTGGCTACGACGGGATT
B4: GCGGUCC (DNA:RNA)
RNA: B1 RNA with U25G, A26C, U28G, G29U, U31C
DNA 1: CAATCTGAATTCCGGTCTCCC
DNA 2: TGGTGGCTACGACGGGATT
B5: GGACCGC (DNA:RNA)
RNA: B2 RNA with C25G, U26G, G31C
DNA 1: CAATCTGAATTCCGGTCTCCC
DNA 2: TGGTGGCTACGACGGGATT
B6: ACGAAGU (DNA:RNA)
RNA: B1 RNA with U25A, A26C, U28A, G29A, C30G
DNA 1: CAATCTGAATTCCGGTCTCCC
DNA 2: TGGTGGCTACGACGGGATT
B7: CGUGAGG (DNA:RNA)
RNA: B2 RNA with U26G, A27U, C28G, C29A
DNA 1: CAATCTGAATTCCGGTCTCCC
DNA 2: TGGTGGCTACGACGGGATT
B8: AGAGUAU (DNA:RNA)
RNA: B2 RNA with C25A, U26G, C28G, C29U, G30A, G31U
DNA 1: CAATCTGAATTCCGGTCTCCC
DNA 2: TGGTGGCTACGACGGGATT
B9: GCCACAG (DNA:RNA)
RNA: B2 RNA with C25G, U26C, A27C, C28A, G30A
DNA 1: CAATCTGAATTCCGGTCTCCC
DNA 2: TGGTGGCTACGACGGGATT
B10: CGUGCGG (DNA:RNA)
RNA: B2 RNA with U26G, A27U, C28G
DNA 1: CAATCTGAATTCCGGTCTCCC
DNA 2: TGGTGGCTACGACGGGATT
B11: CAGGUUG (DNA:RNA)
RNA: B2 RNA with U26A, A27G, C28G, C29U, G30U
DNA 1: CAATCTGAATTCCGGTCTCCC
DNA 2: TGGTGGCTACGACGGGATT
B12: GUGUCCA (DNA:RNA)
RNA: B1 RNA with U25G, A26U, G29C, U31A
DNA 1: CAATCTGAATTCCGGTCTCCC
DNA 2: TGGTGGCTACGACGGGATT
B13: ACUGUAC (DNA:RNA)
RNA: GGGAGACCGGAAUUCAGAUUGUCCACUGUACUUAAAUCCCGUCGUAGCCACCA
DNA 1: CAATCTGAATTCCGGTCTCCC
DNA 2: TGGTGGCTACGACGGGATT
B14: CAUAUGA (DNA:RNA)
RNA: B13 RNA with A25C, C26A, G28A, A30G, C31A
DNA 1: CAATCTGAATTCCGGTCTCCC
DNA 2: TGGTGGCTACGACGGGATT
B15: GCUGGCG (DNA:RNA)
RNA: B13 RNA with A25G, U29G, A30C, C31G
DNA 1: CAATCTGAATTCCGGTCTCCC
DNA 2: TGGTGGCTACGACGGGATT
B16: CAGAAUG (DNA:RNA)
RNA: B2 RNA with U26A, A27G, C28A, C29A, G30U
DNA 1: CAATCTGAATTCCGGTCTCCC
DNA 2: TGGTGGCTACGACGGGATT
B17: CUGAACA (DNA:RNA)
RNA: B2 RNA with A27G, C28A, C29A, G30C, G31A
DNA 1: CAATCTGAATTCCGGTCTCCC
DNA 2: TGGTGGCTACGACGGGATT
B18: CUCGGAC (DNA:RNA)
RNA: B13 RNA with A25C, C26U, U27C, U29G
DNA 1: CAATCTGAATTCCGGTCTCCC
DNA 2: TGGTGGCTACGACGGGATT
B19: AAAAACA (DNA:RNA)
RNA: B1 RNA with U25A, G27A, U28A, G29A, U31A
DNA 1: CAATCTGAATTCCGGTCTCCC
DNA 2: TGGTGGCTACGACGGGATT
B20: UGGUUAU (DNA:RNA)
RNA: B1 RNA with A26G, G29U, C30A
DNA 1: CAATCTGAATTCCGGTCTCCC
DNA 2: TGGTGGCTACGACGGGATT
B21: UCACUCA (DNA:RNA)
RNA: B13 RNA with A25U, U27A, G28C, A30C, C31A
DNA 1: CAATCTGAATTCCGGTCTCCC
DNA 2: TGGTGGCTACGACGGGATT
B22: CACAACG (DNA:RNA)
RNA: B2 RNA with U26A, A27C, C28A, C29A, G30C
DNA 1: CAATCTGAATTCCGGTCTCCC
DNA 2: TGGTGGCTACGACGGGATT
B23: CGAAACC (DNA:RNA)
RNA: B2 RNA with U26G, C28A, C29A, G30C, G31C
DNA 1: CAATCTGAATTCCGGTCTCCC
DNA 2: TGGTGGCTACGACGGGATT
B24: UAAUCGU (DNA:RNA)
RNA: B1 RNA with G27A, G29C, C30G
DNA 1: CAATCTGAATTCCGGTCTCCC
DNA 2: TGGTGGCTACGACGGGATT
B25: CUACUUG (DNA:RNA)
RNA: B2 RNA with C29U, G30U
DNA 1: CAATCTGAATTCCGGTCTCCC
DNA 2: TGGTGGCTACGACGGGATT
B26: UGAAGGG (DNA:RNA)
RNA: B2 RNA with C25U, U26G, C28A, C29G
DNA 1: CAATCTGAATTCCGGTCTCCC
DNA 2: TGGTGGCTACGACGGGATT
B27: UUUAGUU (DNA:RNA)
RNA: B1 RNA with A26U, G27U, U28A, C30U
DNA 1: CAATCTGAATTCCGGTCTCCC
DNA 2: TGGTGGCTACGACGGGATT
B28: CAUGAAA (DNA:RNA)
RNA: B13 RNA with A25C, C26A, U29A, C31A
DNA 1: CAATCTGAATTCCGGTCTCCC
DNA 2: TGGTGGCTACGACGGGATT
B29: GGGAGAA (DNA:RNA)
RNA: B1 RNA with U25G, A26G, U28A, C30A, U31A
DNA 1: CAATCTGAATTCCGGTCTCCC
DNA 2: TGGTGGCTACGACGGGATT
B30: CGUCCAC (DNA:RNA)
RNA: B13 RNA with A25C, C26G, G28C, U29C
DNA 1: CAATCTGAATTCCGGTCTCCC
DNA 2: TGGTGGCTACGACGGGATT
B31: AAUCCCC (DNA:RNA)
RNA: B13 RNA with C26A, G28C, U29C, A30C
DNA 1: CAATCTGAATTCCGGTCTCCC
DNA 2: TGGTGGCTACGACGGGATT

Where a chain is given by its changes, count along the chain named. Some of the results follow.

The test deals with T1, RBFOX1 RRM RbFoxmut (Fox-RRM*). The test can be described thus: EMSA; HiTS-Eq, 1 nM pool, 10 min; buffer printed only for the single-RNA assays: 10 mM Tris pH 7.5, 150 mM NaCl, 3.4 mM EDTA, 0.001% NP-40, 30 C. The settings on record: tags: His6 N-terminal (pET28a); label: 5' 32P. In short, it runs like this: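 Relative association constants, normalised to the cognate motif, were derived by comparing read counts of each RNA species with those of the control reaction. The RNA sequenced was the free fraction, separated by 8% native PAGE after a 10 min equilibration in 50 µL of 1 nM 5′-radiolabelled RNA (7 randomized nucleotides) with increasing concentrations of purified wild-type or mutant RbFox RRM.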
(In EMSA bound probe runs differently from free probe, usually more slowly.)
Regarding B1, the binding signal was 0.0945 KA relative to UGCAUGU.

For the molecule B2, the binding signal is 0.0646 KA relative to UGCAUGU.

Regarding B3, the binding signal was 0.0576 KA relative to UGCAUGU.

Regarding B4, the binding signal is 0.0908 KA relative to UGCAUGU.

As for B5, the binding signal is 0.107 KA relative to UGCAUGU.

As for B6, the binding signal was 0.113 KA relative to UGCAUGU.

On to B7, for which the binding signal was 0.105 KA relative to UGCAUGU.

With B8, the binding signal is 0.121 KA relative to UGCAUGU.

For B9, the binding signal is 0.0788 KA relative to UGCAUGU.

For B10, the binding signal was 0.106 KA relative to UGCAUGU.

With B11, the binding signal was 0.371 KA relative to UGCAUGU.

Take B12: the binding signal is 0.121 KA relative to UGCAUGU.

B13: the binding signal is 0.112 KA relative to UGCAUGU.

For B14, the binding signal is 0.117 KA relative to UGCAUGU.

B15: the binding signal was 0.139 KA relative to UGCAUGU.

For B16, the binding signal is 1.17 KA relative to UGCAUGU.

With B17, the binding signal is 0.0653 KA relative to UGCAUGU.

With B18, the binding signal was 0.0724 KA relative to UGCAUGU.

In the case of B19, the binding signal was 0.075 KA relative to UGCAUGU.

For B20, the binding signal was 0.126 KA relative to UGCAUGU.

Turning to B21, the binding signal is 0.0908 KA relative to UGCAUGU.

Consider B22, for which the binding signal was 0.0933 KA relative to UGCAUGU.

As for B23, the binding signal was 0.0635 KA relative to UGCAUGU.

Turning to B24, the binding signal is 0.0796 KA relative to UGCAUGU.

Consider B25, for which the binding signal is 0.102 KA relative to UGCAUGU.

With B26, the binding signal was 0.0325 KA relative to UGCAUGU.

Consider B27, for which the binding signal is 0.101 KA relative to UGCAUGU.

Consider B28, for which the binding signal is 0.114 KA relative to UGCAUGU.

With B29, the binding signal is 0.107 KA relative to UGCAUGU.

B30: the binding signal was 0.0664 KA relative to UGCAUGU.

As to B31, the binding signal is 0.0723 KA relative to UGCAUGU.

For the origin of these results see PMC9911399, “Two distinct binding modes provide the RNA-binding protein RbFox with extraordinary sequence specificity”.
